Measurements from the supplement of paper PMC8728848.
Some of the results follow.

Tests used:
Assay in all cases: glycan array binding signal (z-score within array); higher = stronger binding
Conditions in all cases: glycan notation: IUPAC condensed, linker removed
[1] = target: Gal(b1-4)GlcNAc(b1-2)Man(a1-3)[Gal(b1-4)GlcNAc(b1-2)Man(a1-6)]Man(b1-4)GlcNAc(b1-4)[Fuc(a1-6)]GlcNAc
Procedure, shortened: (§1)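 The binding signal is a Z-score computed within each array. Data were drawn from 3228 arrays in the Consortium for Functional Glycomics database, restricted to those with a known protein sequence. Scores were averaged over arrays of the same protein sequence at different concentrations or buffers, and over linkers, and negative values can be taken as non-binding.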

[2] = target: Gal(b1-4)GlcNAc(b1-2)Man(a1-3)[Gal(b1-4)GlcNAc(b1-2)][GlcNAc(b1-4)]Man(b1-4)GlcNAc(b1-4)GlcNAc
Procedure, shortened: as §1

[3] = target: Gal(b1-4)GlcNAc(b1-2)Man(a1-3)[GlcNAc(b1-2)Man(a1-6)]Man(b1-4)GlcNAc(b1-4)GlcNAc
Procedure, shortened: as §1

[4] = target: Gal(b1-4)GlcNAc(b1-2)Man(a1-3)[Man(a1-6)]Man(b1-4)GlcNAc(b1-4)GlcNAc
Procedure, shortened: as §1

[5] = target: Gal(b1-4)GlcNAc(b1-2)Man(a1-6)Man(b1-4)GlcNAc(b1-4)GlcNAc
Procedure, shortened: as §1

[6] = target: Gal(b1-4)GlcNAc(b1-2)Man(a1-6)[GlcNAc(b1-2)Man(a1-3)]Man(b1-4)GlcNAc(b1-4)GlcNAc
Procedure, shortened: as §1

[7] = target: Gal(b1-4)GlcNAc(b1-2)Man(a1-6)[Man(a1-3)]Man(b1-4)GlcNAc(b1-4)GlcNAc
Procedure, shortened: as §1

[8] = target: Gal(b1-4)GlcNAc(b1-2)[Gal(b1-4)GlcNAc(b1-4)]Man(a1-3)[Gal(b1-4)GlcNAc(b1-2)Man(a1-6)]Man(b1-4)GlcNAc(b1-4)GlcNAc
Procedure, shortened: as §1

[9] = target: Gal(b1-4)GlcNAc(b1-2)[Gal(b1-4)GlcNAc(b1-4)]Man(a1-3)[Gal(b1-4)GlcNAc(b1-2)[Gal(b1-4)GlcNAc(b1-6)]Man(a1-6)]Man(b1-4)GlcNAc(b1-4)GlcNAc
Procedure, shortened: as §1

[10] = target: Gal(b1-4)GlcNAc(b1-2)[Gal(b1-4)GlcNAc(b1-4)]Man(a1-3)[GlcNAc(b1-4)][Gal(b1-4)GlcNAc(b1-2)Man(a1-6)]Man(b1-4)GlcNAc(b1-4)GlcNAc
Procedure, shortened: as §1

[11] = target: Gal(b1-4)GlcNAc(b1-2)[Gal(b1-4)GlcNAc(b1-4)]Man(a1-3)[GlcNAc(b1-4)][Gal(b1-4)GlcNAc(b1-2)[Gal(b1-4)GlcNAc(b1-6)]Man(a1-6)]Man(b1-4)GlcNAc(b1-4)GlcNAc
Procedure, shortened: as §1

[12] = target: Gal(b1-4)GlcNAc(b1-2)[Gal(b1-4)GlcNAc(b1-4)]Man(a1-3)[GlcNAc(b1-4)][Gal(b1-4)GlcNAc(b1-2)[Gal(b1-4)GlcNAc(b1-6)]Man(a1-6)]Man(b1-4)GlcNAc(b1-4)[Fuc(a1-6)]GlcNAc
Procedure, shortened: as §1

[13] = target: Gal(b1-4)GlcNAc(b1-2)[Gal(b1-4)GlcNAc(b1-6)]Man(a1-6)[Gal(b1-4)GlcNAc(b1-2)Man(a1-3)]Man(b1-4)GlcNAc(b1-4)GlcNAc
Procedure, shortened: as §1

[14] = target: Gal(b1-4)GlcNAc(b1-2)[Gal(b1-4)GlcNAc(b1-6)]Man(a1-6)[Gal(b1-4)GlcNAc(b1-2)Man(a1-3)]Man(b1-4)GlcNAc(b1-4)[Fuc(a1-6)]GlcNAc
Procedure, shortened: as §1

[15] = target: Gal(b1-4)GlcNAc(b1-2)[Gal(b1-4)GlcNAc(b1-6)]Man(a1-6)[GlcNAc(b1-4)][Gal(b1-4)GlcNAc(b1-2)Man(a1-3)]Man(b1-4)GlcNAc(b1-4)GlcNAc
Procedure, shortened: as §1

[16] = target: Gal(b1-4)GlcNAc(b1-3)Gal(b1-3)GlcNAc
Procedure, shortened: as §1

[17] = target: Gal(b1-4)GlcNAc(b1-3)Gal(b1-4)Glc
Procedure, shortened: as §1

[18] = target: Gal(b1-4)GlcNAc(b1-3)Gal(b1-4)GlcNAc
Procedure, shortened: as §1

[19] = target: Gal(b1-4)GlcNAc(b1-3)Gal(b1-4)GlcNAc(b1-3)Gal(b1-4)GlcNAc
Procedure, shortened: as §1

[20] = target: Gal(b1-4)GlcNAc(b1-3)Gal(b1-4)[Fuc(a1-3)GlcNAc(b1-6)]Gal(b1-4)Glc
Procedure, shortened: as §1

[21] = target: Gal(b1-4)GlcNAc(b1-3)Gal(b1-4)[Fuc(a1-3)]GlcNAc(b1-3)Gal(b1-4)[Fuc(a1-3)]GlcNAc
Procedure, shortened: as §1

[22] = target: Gal(b1-4)GlcNAc(b1-3)GalNAc
Procedure, shortened: as §1

[23] = target: Gal(b1-4)GlcNAc(b1-3)[Gal(b1-4)GlcNAc(b1-6)]Gal(b1-4)GlcNAc
Procedure, shortened: as §1

[24] = target: Gal(b1-4)GlcNAc(b1-3)[Gal(b1-4)GlcNAc(b1-6)]GalNAc
Procedure, shortened: as §1

[25] = target: Gal(b1-4)GlcNAc(b1-3)[GlcNAc(b1-6)]Gal(b1-4)GlcNAc
Procedure, shortened: as §1

[26] = target: Gal(b1-4)GlcNAc(b1-6)Gal(b1-4)GlcNAc
Procedure, shortened: as §1

[27] = target: Gal(b1-4)GlcNAc(b1-6)GalNAc
Procedure, shortened: as §1

[28] = target: Gal(b1-4)GlcNAc(b1-6)[Gal(b1-3)]GalNAc
Procedure, shortened: as §1

[29] = target: Gal(b1-4)GlcNAc6P
Procedure, shortened: as §1

[30] = target: Gal(b1-6)Gal
Procedure, shortened: as §1

[31] = target: Gal3S(b1-3)GalNAc
Procedure, shortened: as §1

[32] = target: Gal3S(b1-3)GlcNAc
Procedure, shortened: as §1

[33] = target: Gal3S(b1-3)[Fuc(a1-4)]GlcNAc
Procedure, shortened: as §1

[34] = target: Gal3S(b1-4)Glc
Procedure, shortened: as §1

[35] = target: Gal3S(b1-4)Glc6S
Procedure, shortened: as §1

[36] = target: Gal3S(b1-4)GlcNAc
Procedure, shortened: as §1

[37] = target: Gal3S(b1-4)GlcNAc6S
Procedure, shortened: as §1

[38] = target: Gal3S(b1-4)[Fuc(a1-3)]Glc
Procedure, shortened: as §1

B1: RVL (Remusatia vivipara), B5LYJ9 (protein)
chain: MAKLLLFLLPAILGLLVPRSAVALGTNYLLSGQTLDTEGHLKNGDFDLVMQDDCNLVLYNGNWQSNTANNGRDCKLTLTDYGELVIKNGDGSTVWKSGAQSVKGNYAAVVHPDGRLVVLGPSVFKIDPWVRGLNSLRFRNIPFTNNLLFSGQVLYGDGRLTAKNHQLVMQGDCNLVLYGGKYGWQSNTHGNGEHCFLRLNHKGELIIKDDDFKTIWSSRSSSKQGEYVLILQDDGFGVIYGPAIFETSSKRSIAAS
[1]
  glycan array binding signal (z-score): 7.05
[2]
  glycan array binding signal (z-score): -0.136
[3]
  glycan array binding signal (z-score): 1.11
[4]
  glycan array binding signal (z-score): 0.744
[5]
  glycan array binding signal (z-score): -0.136
[6]
  glycan array binding signal (z-score): 0.007
[7]
  glycan array binding signal (z-score): 1.16
[8]
  glycan array binding signal (z-score): 0.974
[9]
  glycan array binding signal (z-score): 0.596
[10]
  glycan array binding signal (z-score): -0.157
[11]
  glycan array binding signal (z-score): 0.112
[12]
  glycan array binding signal (z-score): 0.097
[13]
  glycan array binding signal (z-score): 0.497
[14]
  glycan array binding signal (z-score): 0.127
[15]
  glycan array binding signal (z-score): -0.158
[16]
  glycan array binding signal (z-score): -0.061
[17]
  glycan array binding signal (z-score): -0.252
[18]
  glycan array binding signal (z-score): -0.29
[19]
  glycan array binding signal (z-score): -0.018
[20]
  glycan array binding signal (z-score): -0.111
[21]
  glycan array binding signal (z-score): -0.213
[22]
  glycan array binding signal (z-score): -0.139
[23]
  glycan array binding signal (z-score): -0.161
[24]
  glycan array binding signal (z-score): -0.01
[25]
  glycan array binding signal (z-score): -0.23
[26]
  glycan array binding signal (z-score): -0.216
[27]
  glycan array binding signal (z-score): -0.113
[28]
  glycan array binding signal (z-score): -0.232
[29]
  glycan array binding signal (z-score): -0.449
[30]
  glycan array binding signal (z-score): -0.205
[31]
  glycan array binding signal (z-score): -0.196
[32]
  glycan array binding signal (z-score): 0.096
[33]
  glycan array binding signal (z-score): -0.004
[34]
  glycan array binding signal (z-score): -0.105
[35]
  glycan array binding signal (z-score): -0.27
[36]
  glycan array binding signal (z-score): -0.113
[37]
  glycan array binding signal (z-score): -0.119
[38]
  glycan array binding signal (z-score): -0.181
